The campaign covered roughly 390,000 compounds. About 150 (0.038%) were called active. The inconclusive results got no clear call from the source; some entries with a clear call stand among them for comparison. The call rests on the fitted dose curve; in most records, active means well fitted inhibition curve with a large enough effect; inconclusive means small, poorly fitted or top-dose-only effect; inactive means no such curve, though single readings can be large or run the other way. Potencies of inconclusive entries are doubtful fits and often do not repeat. Where a structure was tested more than once in an assay, its records may differ in their call.
The molecules below were run against Regulator of G-protein signaling 4 (Homo sapiens) (UniProt P49798) (assay: Inhibitors of Regulator of G Protein Signaling (RGS) 4: qHTS). Conditions: Transcreener GDP fluorescence polarization, RGS4-accelerated GTP hydrolysis; series mostly up to 114 µM.
How it was run: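 MLSMR compounds (23 nl, pin-transferred) preincubated 10 min at room temperature with a 500nM (2x) first reagent, then RGS4 at 900nM (2x) plus Transcreener GDP mix added; fluorescence polarization (620/688 nm) read before and after 90 min at 30 °C.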
Further: nearly all actives have a fitted effect of over 75% in size.
On the % scale 0 is the no-effect control and ±100 the full control effect; potency means the concentration at half of the fitted maximal effect; tags describe the fitted curve by direction and shape.

Sequence of UniProt P49798 (P49798 whole entry, looked up): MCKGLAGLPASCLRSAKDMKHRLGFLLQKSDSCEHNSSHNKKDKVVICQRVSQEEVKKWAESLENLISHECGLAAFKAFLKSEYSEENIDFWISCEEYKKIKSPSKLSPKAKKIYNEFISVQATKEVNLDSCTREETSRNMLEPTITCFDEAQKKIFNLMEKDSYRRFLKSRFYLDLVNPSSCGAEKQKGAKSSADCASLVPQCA

For `Cc1cc(NS(=O)(=O)c2ccc(NC(=S)NC(=O)c3ccc(Cl)cc3Cl)cc2)no1`, which Potency is on record?
Its Potency is inconclusive: 89.1 µM [inhibitor, single point].

With `Cc1ccccc1OCCCN1C(=O)C(=O)c2cccc(C)c21` as the molecule, how does the Potency read?
Its Potency is inconclusive: 39.8 µM [inhibitor, partial curve, poor fit].

Which Potency does the source give for `CCOC(=O)c1sc(=S)n(C)c1NC(=O)c1ccc(OC)cc1` here?
Its Potency is inconclusive: 50.1 µM [inhibitor, partial curve, poor fit].

How did the Potency turn out when `O=C(NCCSc1ccc(Br)cc1)c1ccccc1` was run?
The Potency was inconclusive: 50.1 µM [inhibitor, partial curve, poor fit].

How did the Potency turn out when `COc1cc(OC)c(C2CC(=O)N3CN(c4ccccc4)CSC3=C2C#N)cc1OC` (stereo unspecified) was run?
Its Potency is inconclusive: 50.1 µM [inhibitor, partial curve, poor fit].

With `Cn1c(CN2CCN(c3ccc(Cl)cc3)CC2)nc2ccccc21` as the molecule, how does the Potency read?
Its Potency is “inactive”.

`CCOc1ccc(-c2nn(-c3ccccc3)cc2/C=C2\SC(N)=NC2=O)cc1C` was tested. Which Potency did it give?
The Potency was inconclusive: 89.1 µM [inhibitor, single point].

How did the Potency turn out when `C=CCN1C(=O)N/C(=C/c2ccc(C)o2)C1=O` was run?
Its Potency is inconclusive: 17.8 µM [inhibitor, full curve, poor fit].

Which Potency does the source give for `COc1cccc(C2C3CN(C)CC=C3C(C#N)=C(N)C2(C#N)C#N)c1OC` (stereo unspecified) here?
Its Potency is inconclusive: 79.4 µM [inhibitor, single point].

How did the Potency turn out when `COc1ccc(C(=O)N/N=C/c2cn[nH]c2-c2ccc(OC)cc2OC)cc1` was run?
The Potency was inconclusive: 79.4 µM [inhibitor, partial curve, poor fit].

How did the Potency turn out when `COc1ccc(CCNCC(O)COc2cccc(Br)c2)cc1OC` (stereo unspecified) was run?
The Potency was “inactive”.

With `Cc1cc(C)nc(NN2C(=O)C=CC2=O)n1` as the molecule, how does the Potency read?
Its Potency is inconclusive: 28.2 µM [inhibitor, full curve, poor fit].

How did the Potency turn out when `CCOc1ccc(NC(=O)CCN2CCN(c3ccccc3OC)CC2)cc1` was run?
Its Potency is inconclusive: 89.1 µM [inhibitor, single point].

Which Potency does the source give for `CS(=O)(=O)c1sc2nc(-c3cccs3)cc(-c3ccccc3)c2c1N` here?
Its Potency is inconclusive: 100 µM [inhibitor, partial curve, poor fit].

For `O=C(CC1C(=O)N(c2ccc(F)cc2)C(=O)N1Cc1ccc2c(c1)OCO2)Nc1ccc(Cl)cc1` (stereo unspecified), which Potency is on record?
The Potency was “inactive”.

`O=[N+]([O-])c1cc(Cc2ccccc2)cc(C=Nc2ccc(N3CCOCC3)cc2)c1O` was tested. Which Potency did it give?
Its Potency is inconclusive: 63.1 µM [inhibitor, partial curve, poor fit].

Which Potency does the source give for `O=C1c2c([N+](=O)[O-])cc([N+](=O)[O-])cc2S(=O)N1Cc1ccccc1` (stereo unspecified) here?
The Potency was inconclusive: 79.4 µM [inhibitor, partial curve, poor fit].

With `C=CCNC(=S)Nc1sc2c(c1C(=O)OCC)CC(C(C)C)OC2` (stereo unspecified) as the molecule, how does the Potency read?
Its Potency is inconclusive: 56.2 µM [inhibitor, partial curve, poor fit].

Which Potency does the source give for `COc1ccccc1Nc1n[nH]c(=S)s1` here?
The Potency was inconclusive: 17.8 µM [inhibitor, full curve, poor fit].

With `CCOc1ccc(NC(=O)c2cc(S(=O)(=O)N3CCc4ccccc43)ccc2F)cc1` as the molecule, how does the Potency read?
The Potency was “inactive”.

How did the Potency turn out when `CCCCOc1ccc(CSCCNC(=S)Nc2ccccc2)cc1` was run?
Its Potency is “inactive”.

With `O=C1NN(c2cccc(Br)c2)C(=O)/C1=C\c1ccc(O)cc1` as the molecule, how does the Potency read?
The Potency was inconclusive: 56.2 µM [inhibitor, partial curve, poor fit].

Which Potency does the source give for `Cc1cc(SCC(=O)N/N=C/c2ccc(O)c(O)c2O)c(C)cc1Br` here?
Its Potency is inconclusive: 50.1 µM [inhibitor, partial curve, poor fit].

For `N#CCCN(C(=O)COC(=O)c1ccc2c(=O)n3c(nc2c1)CCC3)c1ccccc1`, which Potency is on record?
The Potency was inconclusive: 22.4 µM [inhibitor, full curve, poor fit].

With `CCn1c(=O)c2cc(C(=O)NCCCN3CCN(C)CC3)sc2c2ccccc21` as the molecule, how does the Potency read?
The Potency was “inactive”.

With `CNC(=S)N/N=C/c1ccco1` as the molecule, how does the activity change, negative = inhibition read?
Its activity change, negative = inhibition is inactive: 35.2% [at 11.4 µM].

Which Potency does the source give for `O=C(Oc1ccccc1/C=C\C(=O)c1cc2ccccc2o1)c1ccccc1` here?
Its Potency is inconclusive: 79.4 µM [inhibitor, partial curve, poor fit].

How did the Potency turn out when `O=C(CNC(=O)[C@@H]1Cc2ccccc2CN1)NC1CCCCC1` was run?
Its Potency is inconclusive: 50.1 µM [inhibitor, partial curve, poor fit].

How did the Potency turn out when `Cc1cc(=O)oc2cc(OCC(=O)N/N=C/c3ccccc3O)ccc12` was run?
Its Potency is “inactive”.

How did the Potency turn out when `O=C(NCCS(=O)(=O)N1CCN(c2ccccc2)CC1)c1ccccc1F` was run?
Its Potency is “inactive”.

How did the Potency turn out when `Cc1ccc(C)c(NC(=O)CCC(=O)N/N=C/c2ccc3c(c2)OCO3)c1` was run?
The Potency was inconclusive: 17.8 µM [inhibitor, full curve, poor fit].

How did the Potency turn out when `CCC(=O)Oc1c(Sc2ccc(Cl)cc2)c(C)nn1-c1ccccc1` was run?
Its Potency is inconclusive: 50.1 µM [inhibitor, partial curve, poor fit].

`OC[C@@H](O)[C@H](O)C(/C=N/Nc1ccccc1)=N\Nc1ccccc1` was tested. Which Potency did it give?
Its Potency is “inactive”.

Which Potency does the source give for `O=C(COC(=O)CSc1ccc2ccccc2c1)NCc1ccc2c(c1)OCO2` here?
Its Potency is “inactive”.

For `COc1ccc(-c2cc(C(N)=O)nc(N3CCCCCC3)n2)cc1`, which Potency is on record?
Its Potency is inconclusive: 89.1 µM [inhibitor, partial curve, poor fit].

For `CCC(=O)OCCNc1cc(Sc2nc3ccccc3s2)c2nonc2c1[N+](=O)[O-]`, which Potency is on record?
The Potency was inconclusive: 17.8 µM [inhibitor, full curve, poor fit].

`COc1ccc(OC)c2[nH]c(=O)c(CCNC(=O)C(=O)c3c[nH]c4ccccc34)cc12` was tested. Which Potency did it give?
Its Potency is inconclusive: 31.6 µM [inhibitor, full curve, poor fit].

Which Potency does the source give for `O=S(=O)(Nc1ccc(O)cc1)c1cccc2cccnc12` here?
The Potency was inconclusive: 56.2 µM [inhibitor, partial curve, poor fit].

`Cc1ccc(C(=O)Nc2sc(C)c(-c3ccccc3)c2C(N)=O)cc1[N+](=O)[O-]` was tested. Which Potency did it give?
Its Potency is inconclusive: 70.8 µM [inhibitor, partial curve, poor fit].

For `CCCCOc1ccc(C(=O)N(Cc2ccc(N(C)C)cc2)Cc2ccco2)cc1`, which Potency is on record?
The Potency was “inactive”.

`Cc1cc(C(=O)NN=Cc2ccc(OC(=O)c3ccco3)cc2)c(C)o1` was tested. Which Potency did it give?
The Potency was inconclusive: 79.4 µM [inhibitor, partial curve, poor fit].

Which Potency does the source give for `O=C(NCc1ccco1)c1ccc(S(=O)(=O)N2CCCCC2)cc1` here?
Its Potency is “inactive”.

`CCNC(=O)COC(=O)c1ccc(S(=O)(=O)N2CCCCCC2)cc1` was tested. Which Potency did it give?
The Potency was inconclusive: 89.1 µM [inhibitor, single point].

For `Cc1ccccc1CN1C(=O)c2ccccc2S(=O)c2ccc(C(=O)NCc3ccc(Cl)cc3)cc21` (stereo unspecified), which Potency is on record?
The Potency was “inactive”.

How did the Potency turn out when `Cc1ccc([N+](=O)[O-])c(OCCCN2CCC(Cc3ccccc3)CC2)c1` was run?
Its Potency is “inactive”.

`CSc1nc(N(CCO)CCO)c2sc3nc(-c4ccco4)c4c(c3c2n1)CCC4` was tested. Which activity change, negative = inhibition did it give?
The activity change, negative = inhibition was inactive: -27.1% [at 11.4 µM].

How did the Potency turn out when `CC(C)Nc1nc2ccccc2c(=O)[nH]1` was run?
The Potency was inconclusive: 17.8 µM [inhibitor, full curve, poor fit].

Which Potency does the source give for `CCn1c(-c2nonc2NC(=O)c2ccccc2)nc2ccccc21` here?
The Potency was “inactive”.

With `COc1ccc(OCc2nnc3n2N=C(c2ccccc2)C(CC(=O)O)S3)cc1` (stereo unspecified) as the molecule, how does the Potency read?
Its Potency is inconclusive: 89.1 µM [inhibitor, partial curve, poor fit].

For `Cc1ccc(Cl)cc1N1CCN(CC(=O)Nc2ccc(CN3CCCCC3)cc2)CC1`, which Potency is on record?
The Potency was “inactive”.

With `CSc1nc(Nc2ccc(F)cc2)cc(-c2ccccc2)n1` as the molecule, how does the Potency read?
The Potency was “inactive”.

Which Potency does the source give for `CSc1ccc(/C=N/NC(=O)CN2CCN(Cc3ccc(Cl)cc3)CC2)cc1` here?
Its Potency is inconclusive: 50.1 µM [inhibitor, partial curve, poor fit].

`CCOC(=O)C1=C(C)N=c2s/c(=C\c3cccc(OCC(=O)O)c3)c(=O)n2C1c1ccccc1` (stereo unspecified) was tested. Which Potency did it give?
Its Potency is inconclusive: 17.8 µM [inhibitor, full curve, poor fit].

With `O=c1c2c3c(sc2nc2n1CCCCC2)CCCC3` as the molecule, how does the Potency read?
The Potency was inconclusive: 50.1 µM [inhibitor, partial curve, poor fit].

Which Potency does the source give for `Fc1ccc(N/N=C/c2ccncc2)c(F)c1` here?
Its Potency is “inactive”.

For `Cc1cc(-c2ccc(/C=N/n3cnnc3)o2)c([N+](=O)[O-])cc1C`, which Potency is on record?
The Potency was inconclusive: 44.7 µM [inhibitor, partial curve, poor fit].

`Cc1oc(-c2ccc(C(=O)NCCC(C)C)cc2)nc1CN1CCc2ccccc21` was tested. Which Potency did it give?
Its Potency is inconclusive: 50.1 µM [inhibitor, partial curve, poor fit].

Which Potency does the source give for `CC(C)n1c(SCCCc2ccccc2)nc2c1c(=O)[nH]c(=O)n2C` here?
Its Potency is inconclusive: 100 µM [inhibitor, partial curve, poor fit].

For `COc1cccc(CNc2ccc3nc(-c4ccc(N)cc4)c(OC)n3n2)c1`, which Potency is on record?
The Potency was active: 37.7 µM.

`COc1ccc2c(c1)Cc1sc(NC(=O)c3cccc(C)c3)nc1-2` was tested. Which Potency did it give?
The Potency was inconclusive: 89.1 µM [inhibitor, partial curve, poor fit].

Which Potency does the source give for `CCOC(=O)C(c1ccccc1)C(Nc1ccc(F)cc1)c1ccccn1` (stereo unspecified) here?
Its Potency is “inactive”.

Which Potency does the source give for `O=C1c2ccccc2[C@@H]2C[C@@H](O)[C@H](Nc3cccc4ccccc34)CCN12` here?
Its Potency is “inactive”.

Which Potency does the source give for `Cc1c(/C=N/Nc2ccc(F)cc2)c(O)n(C)c(=O)c1C#N` here?
The Potency was inconclusive: 39.8 µM [inhibitor, partial curve, poor fit].

`CCN(CC)c1ccc(NC(=O)c2ccccc2)cc1S(=O)(=O)Nc1ccccc1OC` was tested. Which Potency did it give?
The Potency was inconclusive: 31.6 µM [inhibitor, full curve, poor fit].

For `CC(C)Cn1c(-c2ccc(Br)cc2)c[nH]c1=S`, which Potency is on record?
Its Potency is inconclusive: 70.8 µM [inhibitor, partial curve, poor fit].

For `CC(C)C[C@@H](CNCC(=O)[C@H](CC(C)C)NC(=O)c1[nH]cnc1C(=O)N[C@H](CN)CC(C)C)NC(=O)c1nc[nH]c1C(=O)N[C@@H](Cc1ccccc1)C(=O)O`, which Potency is on record?
The Potency was inconclusive: 44.7 µM [inhibitor, partial curve, poor fit].
